# Source: PubChem BioAssay AID588795 (National Center for Advancing Translational Sciences (NCATS), 2011)
# Hit rate of the full screen: of about 390,000 compounds, about 1,400 (0.36%) were called active. This list was built around the results that the source calls inconclusive (neither active nor inactive); the mix of calls is not that of the screen. Calls come from the whole dose curve; as a rule, active = well fitted inhibition curve with a large enough effect; inconclusive = small, poorly fitted or top-dose-only effect; inactive = no such curve, though single readings can be large or run the other way. Where the call is inconclusive, the potency comes from a doubtful curve fit.
# Molecular target: Flap endonuclease 1 (Homo sapiens) (UniProt P39748)
# Experiment: qHTS Assay for the Inhibitors of Human Flap endonuclease 1 (FEN1). Note: nearly all actives have a fitted effect of over 65% in size.
# Conditions: Recombinant FEN1 flap cleavage, fluorescence, 15 min; series mostly up to 114 µM
# Outline: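 Reaction started by adding substrate (50 nM final) to 10 nM enzyme after 15 min room-temperature compound preincubation. Reads at 0 and 15 min, with data normalized and fitted to a four-parameter Hill equation.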
# Potency is the fitted concentration of half-maximal effect; tags give direction and shape of the fitted curve.
# UniProt P39748, sequence (P39748 whole entry, looked up): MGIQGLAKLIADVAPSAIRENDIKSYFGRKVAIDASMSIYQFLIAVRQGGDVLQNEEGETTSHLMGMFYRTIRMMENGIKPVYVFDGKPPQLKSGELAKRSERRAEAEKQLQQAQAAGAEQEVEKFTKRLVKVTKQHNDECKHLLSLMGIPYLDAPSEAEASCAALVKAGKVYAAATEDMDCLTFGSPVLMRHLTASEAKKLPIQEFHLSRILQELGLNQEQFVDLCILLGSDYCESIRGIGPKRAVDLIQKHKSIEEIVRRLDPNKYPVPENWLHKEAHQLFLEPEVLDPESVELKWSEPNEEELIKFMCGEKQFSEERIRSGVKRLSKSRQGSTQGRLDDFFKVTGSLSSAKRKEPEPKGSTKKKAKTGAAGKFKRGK
row,SMILES,Potency
1,Cc1cccc(OCc2nc(-c3ccc(Br)o3)no2)c1,"inconclusive: 56.2 µM [inhibitor, partial curve, poor fit]"
2,O=C(CC(=O)Nc1cccc(Cl)c1)N/N=C\c1ccccc1,"inconclusive: 100 µM [inhibitor, single point]"
3,CCCCC(CC)CNC(=O)C1CCC(CNS(=O)(=O)c2cccc3nsnc23)CC1 (configuration not stated),inactive
4,COc1ccc2o/c(=N/NC(=O)c3cccs3)c(C(N)=O)cc2c1,"inconclusive: 79.4 µM [inhibitor, partial curve, poor fit]"
5,COc1ccc2[nH]c3c(c2c1)CCN1C(=O)C(CC(=O)NCCc2ccccn2)C[C@H](C(=O)N2CCCCC2)[C@@]31CCc1ccccc1 (some centres not stated),"inconclusive: 79.4 µM [inhibitor, partial curve, poor fit]"
6,Cc1ccc(C2=N/C(=C/c3cccs3)C(=O)N2Nc2ccccc2)cc1,"inconclusive: 89.1 µM [inhibitor, partial curve, poor fit]"
7,Cc1cccc(/C=N/NC(=O)c2cc(Br)ccc2OCc2ccccc2)n1,inactive
8,CCN(CC)CCNc1c2c(c(C#N)c3nc4ccccc4n13)CCCC2,"inconclusive: 79.4 µM [inhibitor, single point]"
9,Cc1cccc(OCC(=O)Nc2ccc(C(=O)Nc3ccccc3C(=O)O)cc2)c1C,"inconclusive: 89.1 µM [inhibitor, single point]"
10,O=C(CN1C(=O)c2ccccc2C1=O)NC(Cc1ccccc1)C(=O)O (configuration not stated),inactive
11,Cc1ccc(C)c2c1NC(C(=O)O)C1CC=CC21 (configuration not stated),active: 17.8 µM
12,CSC1=C(C#N)C(c2ccc(Cl)cc2)C2=C(CC(C)(C)CC2=O)N1 (configuration not stated),inactive
13,CCN(CC)S(=O)(=O)c1cccc(C(=O)N/N=C/c2ccc(O)c(O)c2O)c1,"inconclusive: 56.2 µM [inhibitor, partial curve, poor fit]"
14,COc1cc(S(=O)(=O)N2CCN(Cc3ccccc3)CC2)ccc1Br,"inconclusive: 89.1 µM [inhibitor, partial curve, poor fit]"
15,COc1ccccc1C1CC(c2ccc(Br)cc2)=NN1C(=O)c1cccnc1 (configuration not stated),"inconclusive: 79.4 µM [inhibitor, partial curve, poor fit]"
16,CCC(=O)N1CCc2cc(Br)cc(S(=O)(=O)N3CCCC(C(=O)Nc4cccc(Cl)c4C)C3)c21 (configuration not stated),inactive
17,COc1cc2nc(N3CCCN(C)CC3)nc(NC3CCN(C)C3)c2cc1OC (configuration not stated),"inconclusive: 25.1 µM [inhibitor, full curve]"
18,C[n+]1ccc(/C=C/c2ccccc2O)c2ccccc21,"inconclusive: 56.2 µM [inhibitor, partial curve, poor fit]"
19,O=C(O)c1ccc(-c2cccc([N+](=O)[O-])c2)o1,inactive
20,Cc1ccccc1CNC(=O)Cn1ncn2nc(-c3cccs3)cc2c1=O,active: 89.1 µM
21,CC(O)c1cccc(N=Cc2ccc3ccccc3c2O)c1 (configuration not stated),"inconclusive: 22.4 µM [inhibitor, partial curve, poor fit]"

row,SMILES,Potency
1,CCCSc1nnc(NC(=O)CSc2sc3c(O)cc(=O)[nH]c3c2C#N)s1,active: 35.5 µM
2,Cc1ccc(C(=O)N/N=C/c2ccc3c(c2)OCO3)o1,inactive
3,Cn1c(/C=C/c2ccccc2)nc2ccccc21,inactive
4,Cc1ccc2cccc(NC(=O)c3ccc(-c4cccc([N+](=O)[O-])c4)o3)c2n1,"inconclusive: 89.1 µM [inhibitor, partial curve, poor fit]"
5,Nc1ccccc1SC(C[N+](=O)[O-])c1ccccc1 (configuration not stated),active: 15.8 µM
6,COC(=O)\C(C(C)=O)=C(/C=C/C=C/C=C/N(C)C)N(C)C,"inconclusive: 70.8 µM [inhibitor, single point]"
7,COC1=CC(=O)C(O)=C(CCCCCCC/C=C/CCCCCCCC2=C(O)C(=O)C=C(OC)C2=O)C1=O,active: 20 µM
8,O=C(Nc1ccc(F)cc1)[C@H](CSCc1ccccc1)N1Cc2ccccc2C1=O,"inconclusive: 89.1 µM [inhibitor, partial curve, poor fit]"
9,O=C(OCC(=O)c1c[nH]c2ccccc12)c1ccc([N+](=O)[O-])s1,"inconclusive: 25.1 µM [inhibitor, partial curve, poor fit]"
10,O=C(NCCc1ccccn1)C1CCCN(S(=O)(=O)Cc2ccccc2)C1 (configuration not stated),"inconclusive: 89.1 µM [inhibitor, single point]"
11,Cc1c(N2C(=O)/C(=C/c3ccc(N(C)C)cc3)N(C)C2=S)c(=O)n(-c2ccccc2)n1C,"inconclusive: 89.1 µM [inhibitor, partial curve, poor fit]"
12,CO/N=C(\C(=O)N[C@@H]1C(=O)N2C(C(=O)O)=C(COC(C)=O)CS[C@H]12)c1csc(N)n1 (stereo in doubt),"inconclusive: 89.1 µM [inhibitor, single point]"
13,CCOC(=O)CSc1nc(N)c(C#N)c(-c2ccc(OCC)cc2)c1C#N,inactive
14,COc1ccc(-c2oc3ncnc(NCCCN(C)C)c3c2-c2ccc(OC)cc2)cc1,"inconclusive: 31.6 µM [inhibitor, full curve]"
15,CC(=O)Nc1ccc(SCC(c2ccccc2)N2CCN(C)CCC2=O)cc1 (configuration not stated),inactive
16,O=C(c1ccc([N+](=O)[O-])cc1)c1cc2ccc(O)cc2oc1=O,inactive
17,COc1ccc(NC(=O)C(OC(=O)c2ccc([N+](=O)[O-])o2)c2ccccc2)cc1Cl (configuration not stated),"inconclusive: 56.2 µM [inhibitor, partial curve]"
18,COc1ccc(-c2nc(C(=O)NCC3CCCO3)cc3c2[nH]c2ccccc23)cc1 (configuration not stated),"inconclusive: 50.1 µM [inhibitor, partial curve, poor fit]"
19,Cc1cc(C)c(S(=O)(=O)/N=C2/C=C(Sc3ncn[nH]3)C(=O)c3ccccc32)cc1C,active: 50.1 µM
20,Cc1ccc(NC(=O)CN(C)C(=O)COc2ccccc2-c2ccccc2)cc1,"inconclusive: 89.1 µM [inhibitor, partial curve, poor fit]"
21,OCCNc1nc(Nc2ccc(O)cc2)nc2ccccc12,"inconclusive: 50.1 µM [inhibitor, partial curve, poor fit]"
